Source: article PMC8542038
Results are given in words; binding and its absence hold for the method and conditions named. Binding seen in cells or lysates may run through a third protein. Some entries that bind do so weakly or less than the wild type. For some of these results: Where a sequence is shown, tags or fusion partners need not be part of it. Blank lines part the entries; values can stand above or below the substance they belong to.

The chains behind the UniProt entries cited, without tags or fusion partners.
UniProt Q9UQE7: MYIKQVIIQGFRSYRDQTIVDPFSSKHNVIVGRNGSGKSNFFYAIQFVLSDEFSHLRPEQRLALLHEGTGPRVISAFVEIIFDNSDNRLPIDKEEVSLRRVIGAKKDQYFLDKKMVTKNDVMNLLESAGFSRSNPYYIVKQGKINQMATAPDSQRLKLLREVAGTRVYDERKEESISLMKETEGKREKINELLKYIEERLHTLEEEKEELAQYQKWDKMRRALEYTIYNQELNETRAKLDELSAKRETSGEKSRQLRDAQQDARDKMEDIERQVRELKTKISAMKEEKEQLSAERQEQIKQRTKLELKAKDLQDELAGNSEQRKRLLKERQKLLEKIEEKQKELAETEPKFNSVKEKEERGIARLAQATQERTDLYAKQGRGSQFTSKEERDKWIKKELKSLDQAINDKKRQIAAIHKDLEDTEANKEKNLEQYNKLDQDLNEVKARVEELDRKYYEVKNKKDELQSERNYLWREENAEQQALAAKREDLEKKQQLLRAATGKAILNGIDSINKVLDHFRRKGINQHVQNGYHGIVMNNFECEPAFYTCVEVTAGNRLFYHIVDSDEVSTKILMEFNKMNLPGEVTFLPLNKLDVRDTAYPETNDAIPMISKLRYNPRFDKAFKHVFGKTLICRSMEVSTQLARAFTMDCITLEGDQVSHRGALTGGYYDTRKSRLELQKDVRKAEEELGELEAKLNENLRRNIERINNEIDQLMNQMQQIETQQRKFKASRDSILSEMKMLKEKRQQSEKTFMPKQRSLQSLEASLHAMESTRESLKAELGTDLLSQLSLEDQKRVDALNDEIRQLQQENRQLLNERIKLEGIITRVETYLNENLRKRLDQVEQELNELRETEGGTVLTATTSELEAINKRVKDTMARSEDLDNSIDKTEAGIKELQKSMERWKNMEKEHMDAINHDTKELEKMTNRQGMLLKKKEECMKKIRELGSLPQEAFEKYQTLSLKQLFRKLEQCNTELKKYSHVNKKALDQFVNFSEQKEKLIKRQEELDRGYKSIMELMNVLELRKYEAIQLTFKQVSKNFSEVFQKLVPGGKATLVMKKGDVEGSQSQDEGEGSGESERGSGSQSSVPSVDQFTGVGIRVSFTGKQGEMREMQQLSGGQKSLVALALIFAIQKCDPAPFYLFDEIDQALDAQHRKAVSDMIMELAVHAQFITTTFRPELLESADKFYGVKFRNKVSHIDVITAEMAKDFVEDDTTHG
UniProt P51532: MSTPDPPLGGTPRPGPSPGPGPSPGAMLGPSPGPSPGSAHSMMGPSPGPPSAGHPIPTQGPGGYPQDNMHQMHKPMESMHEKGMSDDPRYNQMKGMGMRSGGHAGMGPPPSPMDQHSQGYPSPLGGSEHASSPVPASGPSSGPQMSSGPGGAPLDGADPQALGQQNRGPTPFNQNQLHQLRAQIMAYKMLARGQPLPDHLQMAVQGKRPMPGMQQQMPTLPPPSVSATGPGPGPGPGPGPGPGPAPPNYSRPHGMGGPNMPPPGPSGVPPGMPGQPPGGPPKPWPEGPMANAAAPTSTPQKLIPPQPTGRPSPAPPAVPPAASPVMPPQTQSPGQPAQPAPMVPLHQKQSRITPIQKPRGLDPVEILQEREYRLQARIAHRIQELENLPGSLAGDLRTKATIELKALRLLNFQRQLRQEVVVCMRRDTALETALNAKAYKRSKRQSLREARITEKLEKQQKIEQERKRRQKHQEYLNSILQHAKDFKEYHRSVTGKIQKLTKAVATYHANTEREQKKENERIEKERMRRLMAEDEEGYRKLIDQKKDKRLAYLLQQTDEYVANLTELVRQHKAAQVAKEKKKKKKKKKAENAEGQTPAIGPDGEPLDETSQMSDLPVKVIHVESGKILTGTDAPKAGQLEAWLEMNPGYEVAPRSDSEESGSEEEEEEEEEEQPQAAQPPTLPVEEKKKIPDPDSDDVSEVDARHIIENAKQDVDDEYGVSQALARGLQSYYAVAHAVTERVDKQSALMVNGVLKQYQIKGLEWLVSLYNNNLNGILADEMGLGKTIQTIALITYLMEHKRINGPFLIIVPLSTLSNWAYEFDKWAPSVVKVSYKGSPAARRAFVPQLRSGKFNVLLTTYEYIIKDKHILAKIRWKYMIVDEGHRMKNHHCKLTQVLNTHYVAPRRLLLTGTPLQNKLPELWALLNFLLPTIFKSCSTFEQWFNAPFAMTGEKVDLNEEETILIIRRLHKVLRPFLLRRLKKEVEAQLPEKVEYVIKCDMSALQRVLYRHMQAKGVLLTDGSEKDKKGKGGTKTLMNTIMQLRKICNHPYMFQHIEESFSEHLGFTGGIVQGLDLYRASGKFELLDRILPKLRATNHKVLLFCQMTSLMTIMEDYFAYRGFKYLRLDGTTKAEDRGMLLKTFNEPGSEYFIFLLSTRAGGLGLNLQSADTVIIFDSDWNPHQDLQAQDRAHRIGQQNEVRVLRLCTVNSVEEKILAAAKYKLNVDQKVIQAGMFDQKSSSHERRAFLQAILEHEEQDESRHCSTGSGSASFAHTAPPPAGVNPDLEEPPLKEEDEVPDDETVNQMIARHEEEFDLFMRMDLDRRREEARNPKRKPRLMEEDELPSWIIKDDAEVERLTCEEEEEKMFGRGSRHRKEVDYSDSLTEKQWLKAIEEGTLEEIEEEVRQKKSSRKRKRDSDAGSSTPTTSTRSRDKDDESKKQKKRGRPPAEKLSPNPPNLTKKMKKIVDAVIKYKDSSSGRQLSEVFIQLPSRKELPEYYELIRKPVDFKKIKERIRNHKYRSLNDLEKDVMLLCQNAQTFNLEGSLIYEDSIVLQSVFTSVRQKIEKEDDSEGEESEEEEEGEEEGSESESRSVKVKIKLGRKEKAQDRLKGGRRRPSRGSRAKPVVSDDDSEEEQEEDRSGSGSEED
UniProt Q3TKT4: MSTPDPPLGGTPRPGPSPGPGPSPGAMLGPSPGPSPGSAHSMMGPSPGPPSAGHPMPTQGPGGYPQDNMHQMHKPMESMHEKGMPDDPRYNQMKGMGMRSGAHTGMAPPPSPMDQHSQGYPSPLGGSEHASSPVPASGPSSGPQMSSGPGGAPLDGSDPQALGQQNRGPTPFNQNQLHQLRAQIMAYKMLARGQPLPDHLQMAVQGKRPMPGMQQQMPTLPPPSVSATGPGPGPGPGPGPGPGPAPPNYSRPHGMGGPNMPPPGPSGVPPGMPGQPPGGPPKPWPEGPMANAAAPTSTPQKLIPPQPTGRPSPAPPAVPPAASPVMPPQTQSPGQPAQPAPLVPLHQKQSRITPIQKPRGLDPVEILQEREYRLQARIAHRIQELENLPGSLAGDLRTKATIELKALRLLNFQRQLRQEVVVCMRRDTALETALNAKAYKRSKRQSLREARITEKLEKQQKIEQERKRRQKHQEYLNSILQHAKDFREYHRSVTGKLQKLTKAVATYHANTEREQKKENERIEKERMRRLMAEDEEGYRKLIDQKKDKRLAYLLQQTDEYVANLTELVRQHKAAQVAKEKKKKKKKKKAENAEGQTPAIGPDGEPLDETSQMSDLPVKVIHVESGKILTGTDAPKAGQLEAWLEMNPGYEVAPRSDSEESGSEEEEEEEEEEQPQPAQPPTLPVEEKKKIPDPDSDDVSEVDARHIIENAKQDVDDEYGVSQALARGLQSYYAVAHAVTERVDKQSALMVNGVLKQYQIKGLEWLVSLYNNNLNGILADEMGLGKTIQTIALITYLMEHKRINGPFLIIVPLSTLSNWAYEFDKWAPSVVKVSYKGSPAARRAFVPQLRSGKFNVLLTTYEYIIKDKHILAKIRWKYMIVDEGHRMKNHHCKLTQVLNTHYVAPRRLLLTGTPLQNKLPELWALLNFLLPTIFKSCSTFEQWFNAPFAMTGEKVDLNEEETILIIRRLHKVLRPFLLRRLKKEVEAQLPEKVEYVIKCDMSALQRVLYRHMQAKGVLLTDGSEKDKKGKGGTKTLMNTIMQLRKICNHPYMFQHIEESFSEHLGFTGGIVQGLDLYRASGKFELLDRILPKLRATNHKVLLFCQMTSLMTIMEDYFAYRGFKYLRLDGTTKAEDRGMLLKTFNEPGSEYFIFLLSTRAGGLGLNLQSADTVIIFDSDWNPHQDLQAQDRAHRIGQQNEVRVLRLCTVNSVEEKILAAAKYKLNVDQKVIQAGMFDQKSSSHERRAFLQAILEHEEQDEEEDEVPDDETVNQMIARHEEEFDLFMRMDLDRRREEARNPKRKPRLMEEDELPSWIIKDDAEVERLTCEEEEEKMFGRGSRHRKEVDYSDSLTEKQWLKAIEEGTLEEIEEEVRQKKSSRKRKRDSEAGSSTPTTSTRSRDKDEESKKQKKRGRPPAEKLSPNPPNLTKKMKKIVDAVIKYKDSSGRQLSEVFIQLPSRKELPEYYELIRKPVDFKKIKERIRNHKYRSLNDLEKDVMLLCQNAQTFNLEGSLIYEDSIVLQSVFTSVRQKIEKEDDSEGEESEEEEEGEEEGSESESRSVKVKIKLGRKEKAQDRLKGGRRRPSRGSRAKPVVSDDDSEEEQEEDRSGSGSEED

Columns and labels:
[1] = target: T1, RAD21 (human (endogenous in MHCC-97H, SK-HEP-1, HepG2, HEK293T)) (UniProt O60216); assay: co-sedimentation; nuclear fractions of ARID1A WT and KO AB17 or MHCC-97H cells on 5 to 35% glycerol or 5 to 50% sucrose gradients, 16 h at 35,000 rpm, fractions immunoblotted
T1 sequence: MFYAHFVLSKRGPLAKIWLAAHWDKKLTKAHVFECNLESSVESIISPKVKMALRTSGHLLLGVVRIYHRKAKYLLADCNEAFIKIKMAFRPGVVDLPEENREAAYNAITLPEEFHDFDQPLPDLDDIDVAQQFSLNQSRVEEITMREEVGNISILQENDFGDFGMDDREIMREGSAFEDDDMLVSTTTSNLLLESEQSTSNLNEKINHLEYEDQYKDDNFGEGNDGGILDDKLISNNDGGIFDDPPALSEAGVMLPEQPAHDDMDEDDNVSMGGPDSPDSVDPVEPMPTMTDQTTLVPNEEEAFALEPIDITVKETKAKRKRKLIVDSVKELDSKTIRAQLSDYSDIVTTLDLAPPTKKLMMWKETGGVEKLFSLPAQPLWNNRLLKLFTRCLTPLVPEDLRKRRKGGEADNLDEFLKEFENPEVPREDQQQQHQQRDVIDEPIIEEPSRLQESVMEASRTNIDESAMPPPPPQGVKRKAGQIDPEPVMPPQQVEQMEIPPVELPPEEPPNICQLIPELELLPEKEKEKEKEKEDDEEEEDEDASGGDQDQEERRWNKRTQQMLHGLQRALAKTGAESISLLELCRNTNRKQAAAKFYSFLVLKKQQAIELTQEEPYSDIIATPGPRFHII

[2] = target: T1, RAD21 (human (endogenous in MHCC-97H, SK-HEP-1, HepG2, HEK293T)); assay: co-IP; endogenous proteins, nuclear extracts of human liver cancer cells (ARID1A WT and KO MHCC-97H; MHCC-97H, SK-HEP-1, HepG2); Protein G beads, washes with 300 mM NaCl lysis buffer, immunoblot
[3] = target: SMC3 (human (endogenous in HEK293T)) (UniProt Q9UQE7); assay: co-IP; Flag-tagged BRG1-transfected HEK293T cells, partners not transfected; immunoblot
[4] = target: T1, RAD21 (human (endogenous in MHCC-97H, SK-HEP-1, HepG2, HEK293T)); assay: as above
[5] = target: T2, HA-RAD21 (UniProt O60216); assay: co-IP; HEK293T cells transfected with differently tagged constructs (T7-ARID1A or BRG1-FLAG with HA-CTCF or HA-RAD21); IP with anti-T7, anti-Flag and anti-HA antibodies, immunoblot
T2 sequence: T1 sequence

[6] = target: T3, GST-RAD21 (UniProt O60216); assay: pull-down; purified GST or GST-RAD21 incubated with in vitro translated BRG1-Flag in binding buffer at 4 °C for 2 h, glutathione-Sepharose beads, five washes; detected with anti-BRG1 antibody; only the target purified
T3 sequence: T1 sequence

[7] = target: T4, Rad21 (mouse (endogenous in AB17, MEF)) (UniProt Q61550); assay: co-sedimentation; nuclear fractions of ARID1A WT and KO AB17 or MHCC-97H cells on 5 to 35% glycerol or 5 to 50% sucrose gradients, 16 h at 35,000 rpm, fractions immunoblotted
T4 sequence: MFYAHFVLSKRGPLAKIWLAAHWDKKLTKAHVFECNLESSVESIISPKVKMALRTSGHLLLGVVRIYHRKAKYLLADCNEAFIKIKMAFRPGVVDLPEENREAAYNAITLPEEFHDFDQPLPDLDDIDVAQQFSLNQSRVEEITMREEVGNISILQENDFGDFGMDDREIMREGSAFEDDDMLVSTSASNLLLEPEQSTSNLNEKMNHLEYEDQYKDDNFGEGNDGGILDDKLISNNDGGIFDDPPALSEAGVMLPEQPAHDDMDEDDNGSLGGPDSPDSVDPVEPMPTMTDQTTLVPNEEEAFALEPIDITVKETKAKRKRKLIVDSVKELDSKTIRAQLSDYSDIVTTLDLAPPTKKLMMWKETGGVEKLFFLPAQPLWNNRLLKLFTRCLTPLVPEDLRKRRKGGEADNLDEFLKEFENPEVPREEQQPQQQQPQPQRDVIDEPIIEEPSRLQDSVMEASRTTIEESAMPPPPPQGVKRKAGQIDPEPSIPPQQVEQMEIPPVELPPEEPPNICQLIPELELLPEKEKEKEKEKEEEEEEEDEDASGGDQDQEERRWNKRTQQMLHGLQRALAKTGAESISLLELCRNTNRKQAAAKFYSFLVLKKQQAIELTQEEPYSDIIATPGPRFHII

- binding [1]: binds
- binding [2]: binds
Substance: BRG1 (from UniProt P51532 1-1647)

- binding [3]: no binding
- binding [4]: binds
- binding [5]: binds
Substance: BRG1-FLAG (from UniProt P51532 1-1647)

- binding [6]: binds
Substance: BRG1-Flag, in vitro translated (from UniProt P51532 1-1647)

- binding [7]: binds
Substance: Brg1 (from UniProt Q3TKT4 1-1613)
